Measurements from PubChem BioAssay (NCI).
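Each compound was tested at five concentrations against cells in 96-well plates for 48 hours. At the GI50, growth is halved. Definition used: TGI = concentration required for complete inhibition of growth.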

What follows are compounds tested on NCI-H322M lung (assay: DTP human tumour cell line panel, 48 h).

Q: How did the TGI turn out when `OC1(c2cccs2)c2cccc(Cl)c2C(O)(c2cccs2)c2c(Cl)cccc21` (stereo not given) was run?
A: > 100 µM

Q: For `Cc1cc(=O)[nH]c(-n2[nH]c(C)c(CCO)c2=O)n1`, which TGI is on record?
A: > 100 µM

Q: Which results are given for `c1ccc2[nH]c(-c3ccc(-c4nccc5c4[nH]c4ccccc45)cc3)nc2c1`?
A: GI50: 2.86 µM; TGI: 8.9 µM

Q: Which TGI does the source give for `C=CCN1C(=O)/C(=C/c2ccco2)N=C1SC/C=C/C` here?
A: > 100 µM

Q: Which TGI does the source give for `Cc1cc2ccccc2n2c1nc1ccccc12` here?
A: > 100 µM

Q: `C=C(C)C1=CCC[C@]2(C1)N=C(OC)[C@@H](C(C)C)N=C2OC` was tested. Which TGI did it give?
A: > 100 µM

Q: Which TGI does the source give for `CN(C)CCCSc1nc2ccccc2[nH]1` here?
A: > 100 µM

Q: How did the TGI turn out when `Cc1cc(=O)n(-c2ccccc2C)c(C)n1` was run?
A: > 100 µM

Q: Which TGI does the source give for `CN(C)CC/C(=N\Nc1ccc([N+](=O)[O-])cc1)c1ccccc1` here?
A: 28.9 µM

Q: With `Nc1ccnc(=O)[nH]1` as the compound, how does the TGI read?
A: > 100 µM

Q: Which results are given for `CN(O)c1nc(N(C)O)nc(N2CCOCC2)n1`?
A: GI50: 2.92 µM; TGI: > 100 µM

Q: Which TGI does the source give for `CCCCCCCCCCCCCCCCCCNC(=O)C(N)Cc1ccc(OCc2ccccc2)cn1` (stereo not given) here?
A: 42.8 µM

Q: For `[N-]=[N+]=Nc1ccccc1C(=O)N1C(=O)c2ccccc2C(=O)N(C(=O)c2ccccc2N=[N+]=[N-])c2ccccc21`, which TGI is on record?
A: > 100 µM

Q: With `CS(=O)(=O)c1nc(-c2cc3c(c(S(C)(=O)=O)n2)CCC3)cc2c1CCCCC2` as the compound, how does the TGI read?
A: > 100 µM

Q: For `Cc1ccc(S(=O)(=O)N/N=C/c2c(O)ccc3ccccc23)cc1`, which TGI is on record?
A: 85.4 µM

Q: Which results are given for `COc1ccc(-c2cc(=O)[nH]c3c(OC)c4ccccc4c(OC)c23)cc1`?
A: GI50: > 25.1 µM; TGI: > 100 µM

Q: Which TGI does the source give for `CC1=NN(C(=O)c2ccccc2O)C(=O)/C1=C/c1ccco1` here?
A: > 100 µM

Q: For `O=[N+]([O-])/C(C(Cl)=C(Cl)Cl)=C(\N1CCOCC1)n1nnc2ccccc21`, which TGI is on record?
A: 30.5 µM

Q: With `CNc1ccc(C(=O)CC(O)CCC(C)C2OC(=O)CC(O)CC(=O)CC(O)CC(O)CC(O)CC(O)CC3(O)CC(O)C(C(=O)N4CCOCC4)C(CC(OC4OC(C)C(O)C(N)C4O)/C=C/C=C/C=C/C=C\C=C/C=C/C=C/C2C)O3)cc1` (stereo not given) as the compound, how does the TGI read?
A: 0.54 µM

Q: Which TGI does the source give for `Cc1csc2c(=O)n(C3OC(CO)C(O)C3O)c(=O)[nH]c12` (stereo not given) here?
A: > 100 µM

Q: How did the TGI turn out when `O=C(CN1CCCCC1)Nc1ccc2sc3ccccc3c(=O)c2n1` was run?
A: 43.8 µM

Q: `O=S1(=O)N=C(SCc2ccccc2)N(c2ccccc2)c2ccncc21` was tested. Which TGI did it give?
A: > 100 µM

Q: With `O=C1NC2ON=C(c3ccccc3)C2C2ON=C(c3ccccc3)N12` (stereo not given) as the compound, how does the TGI read?
A: > 100 µM

Q: For `C[C@]12C=CC(=O)C=C1CC[C@@H]1[C@@H]2CC[C@]2(C)OC(=O)CC[C@@H]12`, which TGI is on record?
A: > 471 µM

Q: How did the TGI turn out when `C1=NCCN2CCN(CCN=Cc3ccc(cc3)OCc3cccc(n3)COc3ccc1cc3)CC2` was run?
A: > 50 µM

Q: With `CCN(CC)c1c(C(=O)/C=C/c2ccc(OC)cc2)c(-c2ccccc2)nn(C)c1=O` as the compound, how does the TGI read?
A: 44.7 µM

Q: What does the source list for `CCCCCCCCCCCCCCCCCCOc1ccccc1CC(=O)OCC[N+]1(C)CCCCC1`?
A: GI50: 5.78 µM; TGI: 22.2 µM

Q: How did the TGI turn out when `O=C(O)CNC(=O)c1ccc(-c2ccccc2)cc1` was run?
A: > 100 µM

Q: How did the GI50 turn out when `Nc1c(C(=O)c2cccc(-c3ccncc3)c2)cnn1-c1ccc(F)cc1F` was run?
A: > 19.2 µM

Q: And the TGI?
A: > 25 µM

Q: For `CN(C)Nc1cc(=O)[nH]c(=O)[nH]1`, which TGI is on record?
A: > 100 µM

Q: `C(=C\c1cccs1)/c1cccc(/C=C/c2cccs2)n1` was tested. Which TGI did it give?
A: > 100 µM

Q: How did the TGI turn out when `C=C1c2ccccc2C(=O)c2c1c1c(C(=O)OC)c(O)ccc1n2Cc1ccccc1` was run?
A: 3.87 µM

Q: Which GI50 does the source give for `Cc1cc2c(cc1C)N(C(=O)CCl)CC(=O)N2` here?
A: 9.31 µM

Q: What about the TGI of the same compound?
A: 21.7 µM

Q: With `O=C([O-])C[n+]1ccccc1` as the compound, how does the TGI read?
A: > 100 µM

Q: Which GI50 does the source give for `CCC(C)(CC(C)(C)C(=O)NCC(=O)NC(Cc1ccccc1)C(=O)NC(Cc1ccccc1)C(=O)NCC(=O)NC1CC(OC2CC(O)(C(=O)CO)Cc3c(O)c4c(c(O)c32)C(=O)c2c(OC)cccc2C4=O)OC(C)C1O)C(=O)NCC(C)O` (stereo not given) here?
A: > 150 µg/mL

Q: And the TGI?
A: > 150 µg/mL

Q: What does the source list for `CCN(CC)CCCCNc1c2ccccc2[n+](C)c2c1[nH]c1ccccc12`?
A: GI50: 0.328 µM; TGI: 4.87 µM

Q: Which GI50 does the source give for `C=C(C)C(=O)Nc1ccc(NC(C)C)cc1` here?
A: > 100 µM

Q: What about the TGI of the same compound?
A: > 100 µM

Q: Which TGI does the source give for `Cc1cccc(C)c1NC(=O)C(C#N)C1=C(Cl)C(=O)c2ccccc2C1=O` (stereo not given) here?
A: 30.2 µM

Q: With `O=c1c2c(oc3ccccc13)-c1ccccc1OC2` as the compound, how does the TGI read?
A: > 100 µM

Q: How did the TGI turn out when `Cn1c2ccccc2c2c(-c3ccccc3)cc3c(c21)C(=O)C=CC3=O` was run?
A: > 10 µM

Q: With `NC(N)=N/N=C/c1c(-c2ccc(Cl)cc2)nc2sccn12` as the compound, how does the TGI read?
A: 9.98 µM

Q: Which GI50 does the source give for `COc1ccc2nc3cccc([N+](=O)[O-])c3c(NCCCCCC(=O)O)c2c1` here?
A: 0.368 µM

Q: What about the TGI of the same compound?
A: 4.19 µM

Q: Which results are given for `COc1c(C)c2c(c(O)c1C/C=C(\C)CCC(=O)O)C(=O)OC2`?
A: GI50: 0.5 µM; TGI: > 100 µM

Q: How did the TGI turn out when `CC1CCC(NC(=O)N(CCCl)N=O)CC1` (stereo not given) was run?
A: 151 µM

Q: For `COC1=C(OC)C(=O)C(Cc2c(Cl)nc3sc(C)cn23)=C(C)C1=O`, which TGI is on record?
A: 34.7 µM

Q: For `COc1ccc2c3c1O[C@]1(C)C34CCN(C)C(C2)C42C=C[C@@]1(OC)c1c(O)ccc(O)c12`, which TGI is on record?
A: > 100 µM

Q: How did the TGI turn out when `O=C1/C(=C/c2cccc(F)c2)CCCc2ccccc21` was run?
A: 35.9 µM

Q: With `COC(=O)/C=C(/C)n1nc2ccccc2n1` as the compound, how does the TGI read?
A: > 100 µM

Q: With `COc1cc(O)c2c(=O)cc(-c3ccc(O)cc3O)oc2c1CC=C(C)C` as the compound, how does the TGI read?
A: 38.3 µM

Q: With `CCc1c2c([nH]c(=S)c1C#N)CCC2` as the compound, how does the TGI read?
A: > 100 µM

Q: For `C=Cc1ccc(C)[n+](C[Si](C)(C)O[Si](C)(C)C)c1`, which TGI is on record?
A: > 100 µM

Q: Which TGI does the source give for `COc1cc2c(c(OC)c1OC)-c1ccc(SC)c(=O)cc1C(CO)C2` (stereo not given) here?
A: 0.822 µM

Q: With `COc1ccc(-c2c[nH]c(C(=O)O)c2-c2cc(OC)c(OC)c(OC)c2)cc1` as the compound, how does the GI50 read?
A: 5.42 µM

Q: What about the TGI of the same compound?
A: > 100 µM

Q: How did the GI50 turn out when `O=C([CH-]C(=O)c1ccccc1)c1ccccc1.O=C([CH-]C(=O)c1ccccc1)c1ccccc1.[La+3].[OH-].[OH3+]` was run?
A: 17.9 µM

Q: What about the TGI of the same compound?
A: 65.1 µM

Q: How did the TGI turn out when `c1ccc2c(c1)cc(C1NCCc3[nH]cnc31)c1ccccc12` (stereo not given) was run?
A: > 100 µM

Q: `O=C1/C(=C/c2ccccc2O)N=C(c2ccccc2)N1C1Nc2cc3c(cc2S1)NC(N1C(=O)/C(=C/c2ccccc2O)N=C1c1ccccc1)S3` (stereo not given) was tested. Which TGI did it give?
A: > 100 µM

Q: `COc1cc2ccc(/C=C\[N+](=O)[O-])cc2cc1OC` was tested. Which TGI did it give?
A: 27.6 µM

Q: For `NC1=C(NC(=O)Cc2ccc(F)cc2)C(=O)c2ccccc2C1=O`, which TGI is on record?
A: > 100 µM

Q: For `Cc1ccc2c(c1)[nH]c(=S)n2/C=C1\C(=O)Oc2ccccc2C1=O`, which TGI is on record?
A: > 100 µM

Q: `COC(=O)C(=O)C(C(=O)C(=O)Nc1ccc(F)cc1)c1nc2ccc([N+](=O)[O-])cc2[nH]c1=O` (stereo not given) was tested. Which TGI did it give?
A: > 100 µM

Q: How did the GI50 turn out when `O=C1Nc2ccccc2/C1=C/C(=O)c1coc2c1C(=O)c1ccccc1C2=O` was run?
A: > 100 µM

Q: And the TGI?
A: > 100 µM

Q: Which results are given for `C=C1C(=O)O[C@H]2[C@H]1CC/C(COC(=O)NCc1ccc(Cn3c(=O)sn(CCCl)c3=O)cc1)=C\CC[C@@]1(C)O[C@@H]21`?
A: GI50: 14.7 µM; TGI: 28.4 µM

Q: `CP1(=O)CCCCC1` was tested. Which TGI did it give?
A: > 100 µM

Q: What does the source list for `CCC[CH2][Sn]1([CH2]CCC)[O]C(=O)c2cccnc2[O]1`?
A: GI50: 11.7 µM; TGI: 23.9 µM

Q: What does the source list for `CN(C)CCN1C(=O)c2ccccc2N(C)c2ccccc21`?
A: GI50: > 100 µM; TGI: > 100 µM

Q: What does the source list for `COc1ccc(-c2cn(-c3cc(OC)c(OC)c(OC)c3)c(SCc3ccccc3)n2)cc1OC`?
A: GI50: > 100 µM; TGI: > 100 µM

Q: Which TGI does the source give for `Cc1cc2c(cc1-c1cc3c(cc1C)C(C(C)C)=C(O)C(=O)/C3=C\Nc1c3ccccc3nc3ccccc13)/C(=C/Nc1c3ccccc3nc3ccccc13)C(=O)C(O)=C2C(C)C` here?
A: 16.5 µM

Q: Which TGI does the source give for `C[C@]12CCC(=O)C=C1CC[C@@H]1[C@@H]2CC[C@]2(C)C(=O)NC(=O)C[C@@H]12` here?
A: > 100 µM

Q: How did the TGI turn out when `NN(CC(=O)O)CC(=O)O` was run?
A: > 100 µM

Q: Which TGI does the source give for `O=C1C(Cl)C2(CC(/C=C/c3ccccc3Cl)=NN2c2cccc(S(=O)(=O)O)c2)N1c1nc2ccccc2s1` (stereo not given) here?
A: > 100 µM

Q: How did the TGI turn out when `CC(C)C1CC[C@@H](C)C[C@@]1(O)CC(N)=O` (stereo not given in full) was run?
A: > 100 µM

Q: Which TGI does the source give for `COc1ccc2n[se]nc2c1` here?
A: > 100 µM
